Data from publication PMC4336329 (PLoS ONE, 2015).
In all, about 310,000 compounds went through this assay and about 2,200 (0.71%) showed an effect of 50% or more. Effects have a minus sign here. The list shows a part of the results.

Biological target: human ether-à-go-go-related gene (hERG) potassium channel (human, UniProt Q12809)
Test: primary screen, population patch clamp on CHO cells stably expressing hERG

Sequence of human ether-à-go-go-related gene (hERG) potassium channel (Q12809 whole entry, looked up): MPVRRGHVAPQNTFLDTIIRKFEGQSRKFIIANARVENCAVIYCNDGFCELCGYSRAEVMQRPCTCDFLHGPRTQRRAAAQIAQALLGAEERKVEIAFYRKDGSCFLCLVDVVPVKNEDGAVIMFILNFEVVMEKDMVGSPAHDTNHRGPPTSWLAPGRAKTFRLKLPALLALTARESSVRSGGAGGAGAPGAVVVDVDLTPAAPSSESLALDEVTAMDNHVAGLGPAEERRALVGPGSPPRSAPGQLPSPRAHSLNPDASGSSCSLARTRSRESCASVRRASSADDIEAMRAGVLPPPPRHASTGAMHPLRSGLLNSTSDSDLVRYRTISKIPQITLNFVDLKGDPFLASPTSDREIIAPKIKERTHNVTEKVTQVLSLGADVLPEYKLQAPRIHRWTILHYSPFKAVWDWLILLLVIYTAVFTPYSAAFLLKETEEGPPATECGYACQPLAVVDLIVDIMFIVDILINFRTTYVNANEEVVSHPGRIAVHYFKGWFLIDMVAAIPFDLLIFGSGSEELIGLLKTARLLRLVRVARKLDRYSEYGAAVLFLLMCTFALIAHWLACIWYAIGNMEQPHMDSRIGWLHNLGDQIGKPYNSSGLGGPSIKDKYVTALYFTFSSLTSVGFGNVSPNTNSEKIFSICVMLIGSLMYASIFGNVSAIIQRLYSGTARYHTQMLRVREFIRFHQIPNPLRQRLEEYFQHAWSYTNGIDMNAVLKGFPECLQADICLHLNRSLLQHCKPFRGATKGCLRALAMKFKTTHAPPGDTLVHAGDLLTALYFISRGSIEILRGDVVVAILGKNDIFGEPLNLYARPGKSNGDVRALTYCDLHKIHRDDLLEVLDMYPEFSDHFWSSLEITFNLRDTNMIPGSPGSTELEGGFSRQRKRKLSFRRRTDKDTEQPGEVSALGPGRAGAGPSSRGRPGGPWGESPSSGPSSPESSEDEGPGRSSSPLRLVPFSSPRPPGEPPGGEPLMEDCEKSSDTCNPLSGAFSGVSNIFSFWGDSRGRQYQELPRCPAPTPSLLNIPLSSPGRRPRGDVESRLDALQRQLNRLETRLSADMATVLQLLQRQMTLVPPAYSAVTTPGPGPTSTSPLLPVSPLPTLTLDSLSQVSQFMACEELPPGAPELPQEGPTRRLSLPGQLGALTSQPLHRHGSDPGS

| SMILES | hERG current change (%, negative = inhibition) at 1uM |
| --- | --- |
| O=c1c2ccccc2c(-c2ccccc2)nn1Cc1ccc(Cl)cc1 | 14.3% |
| O=C(Cc1ccc(Br)cc1)N1CCCC1 | 12.1% |
| CCOCCCNC(=O)Cn1nc(Cc2ccncc2)c2ccccc2c1=O | 10.8% |
| Cc1nn(-c2cccc(Cl)c2)c2nc(C(F)(F)F)[nH]c(=O)c12 | 9.58% |
| CCc1ccc(N2CC(C(=O)NCC(C)(C)N3CCOCC3)CC2=O)cc1 (stereo not drawn) | 12.8% |
| CCCc1cc(C(=O)Nc2cc(C)ccc2O)no1 | 7.19% |
| CCCC(=O)N(CCN(C(=O)CCC)c1ccccc1)c1ccccc1 | 5.23% |
| NC(=O)CN1N=C(c2cc(Cl)sc2Cl)CSC1=O | -1.93% |
| N#Cc1nc(Cc2ccccc2)oc1NCc1ccccc1 | -4.62% |
| N#C/C(=C\c1c(F)cccc1Cl)C(=O)NC1CC1 | -5.1% |
| O=C(O)c1ccc(NC(=O)C2CC=CCC2C(=O)O)cc1 (stereo not drawn) | -12% |
| COCCN(C(=O)COC(=O)c1sccc1C)c1c(N)n(Cc2ccccc2)c(=O)[nH]c1=O | 13.2% |
| CC1Cc2ccccc2N1C(=O)CSc1nnc2c(n1)[nH]c1ccc(F)cc12 (stereo not drawn) | 10.8% |
| Cc1[nH]c(C)c(S(=O)(=O)NCc2ccc(Cl)cc2)c1C(=O)N1CCCC1 | 19.2% |
| O=C(Cc1ccccc1)N/N=C/c1ccc(OC(=O)/C=C\c2ccco2)cc1 | 6.29% |
| CCOC(=O)Cc1nn(CC)c(=O)c2ccccc12 | 16.9% |
| O=C1Nc2cc(C(=O)N3CCOCC3)ccc2SC1N1CCOCC1 (stereo not drawn) | 7.61% |
| O=C(Cn1nnc(-c2ccc(CN3CCOCC3)cc2)n1)NC1CCCCC1 | -7.82% |
| CCCC(c1nnnn1C(C)(C)CC)N1CCN(C2CCCC2)CC1.Cl (stereo not drawn) | -17.8% |
| COC(=O)c1cccnc1NC(=S)NC(C)C | 1.57% |
| C/C(=N\NS(=O)(=O)c1ccc(C)cc1)c1ccc(C)s1 | 15.4% |
| Cc1ccc(C(=O)C2CCN(CC(=O)Nc3nc(C)cs3)CC2)cc1 | -7.31% |
| COCCN(C(=O)c1ccc(C#N)cc1)c1c(N)n(Cc2ccccc2)c(=O)[nH]c1=O | 9.54% |

| SMILES | hERG current change (%, negative = inhibition) at 1uM |
| --- | --- |
| c1ccc2nc3c(cc2c1)CCCCCC3 | 12.4% |
| Cc1cccc(NC(=O)CSCC(=O)Nc2cccc3ncccc23)c1 | 10.2% |
| CN1CCC/C1=C/C=C1\SC(=S)NC1=O | 7.98% |
| CCc1ccc(NC(=O)CCS(=O)(=O)c2ccc(Br)cc2)cc1 | 22.3% |
| COc1ccccc1NC(=O)C1=C(C)Nc2nnnn2C1c1ccccn1 (stereo not drawn) | 13.2% |
| O=C(NCCCN1CCOCC1)c1ccc2ccccc2c1 | 0.695% |
| CCC1C/C(=C/c2ccco2)C(=O)/C(=C/c2ccco2)C1 (stereo not drawn) | 1.75% |
| Cl.O=C(/C=C/c1cn(-c2ccccc2)nc1-c1cccnc1)NCCN1CCOCC1 | 12% |
| COc1ccc(NC(=O)CN2CCCCCC2)cc1OC | 7.92% |
| CCOC(=O)Nc1ccc(=O)n(Cc2c(Cl)cccc2Cl)c1 | 6.44% |
| Cc1oc2cc(O)cc(C)c2c(=O)c1-c1cnn(-c2ccccc2)c1 | 8.07% |
| COc1ccccc1C1CC(c2ccc(NS(C)(=O)=O)cc2)=NN1C(=O)c1ccccc1 (stereo not drawn) | -6.92% |
| CC(=O)Nc1ccc(S(=O)(=O)n2nc(-c3ccc(C)cc3)nc2N)cc1 | 15.1% |
| CN1C(C(=O)N2CCC3(CC2)OCCO3)=CC(c2ccc(F)cc2)=NS1(=O)=O | 12.1% |
| CCOC(=O)NN1C(=O)c2ccccc2NC1c1ccccn1 (stereo not drawn) | 11.9% |
| Cc1ccc(C)c(S(=O)(=O)N2CCC3(CC2)OCCO3)c1 | 10.5% |
| O=C(CO/N=C/c1ccc(OC(F)F)cc1)NCc1ccc(F)cc1 | -52% |
| COc1ccc(CCNC(=O)CS(=O)(=O)c2cn(CC(=O)N3CCCC3)c3ccccc23)cc1OC | 12.8% |
| CCOC(=O)N1CCN(C(=O)CSCC(=O)N=c2sc3ccccc3n2C)CC1 | -3.08% |
| Cl.N=c1c2c(n(Cc3cccc(Cl)c3)c3c1CCC3)CCCC2 | 10.2% |
| CC1CN(CC(=O)Nc2ccc(S(N)(=O)=O)cc2)CC(C)O1 (stereo not drawn) | -13.5% |
| CCCCOc1ccc(/C=N/NC(=O)c2csc(C)c2C)cc1 | 14.7% |
